Source: PMC10040811
Results are given in words; binding and its absence hold for the method and conditions named. Binding seen in cells or lysates may run through a third protein. Some entries that bind do so weakly or less than the wild type. For some of these results: Sequences can lack the tags named with a protein.

Protein sequences, listed by entry. Tags and fused reporters are not part of them. Lines headed by an entry give the natural chain unless they say otherwise; changes in a name come on top. Chains listed by the source or under a name are the forms on record and can include a tag or linker.
l-afadin (endogenous, mouse brain) (mouse (endogenous in brain)) (Q9QZQ1, form named): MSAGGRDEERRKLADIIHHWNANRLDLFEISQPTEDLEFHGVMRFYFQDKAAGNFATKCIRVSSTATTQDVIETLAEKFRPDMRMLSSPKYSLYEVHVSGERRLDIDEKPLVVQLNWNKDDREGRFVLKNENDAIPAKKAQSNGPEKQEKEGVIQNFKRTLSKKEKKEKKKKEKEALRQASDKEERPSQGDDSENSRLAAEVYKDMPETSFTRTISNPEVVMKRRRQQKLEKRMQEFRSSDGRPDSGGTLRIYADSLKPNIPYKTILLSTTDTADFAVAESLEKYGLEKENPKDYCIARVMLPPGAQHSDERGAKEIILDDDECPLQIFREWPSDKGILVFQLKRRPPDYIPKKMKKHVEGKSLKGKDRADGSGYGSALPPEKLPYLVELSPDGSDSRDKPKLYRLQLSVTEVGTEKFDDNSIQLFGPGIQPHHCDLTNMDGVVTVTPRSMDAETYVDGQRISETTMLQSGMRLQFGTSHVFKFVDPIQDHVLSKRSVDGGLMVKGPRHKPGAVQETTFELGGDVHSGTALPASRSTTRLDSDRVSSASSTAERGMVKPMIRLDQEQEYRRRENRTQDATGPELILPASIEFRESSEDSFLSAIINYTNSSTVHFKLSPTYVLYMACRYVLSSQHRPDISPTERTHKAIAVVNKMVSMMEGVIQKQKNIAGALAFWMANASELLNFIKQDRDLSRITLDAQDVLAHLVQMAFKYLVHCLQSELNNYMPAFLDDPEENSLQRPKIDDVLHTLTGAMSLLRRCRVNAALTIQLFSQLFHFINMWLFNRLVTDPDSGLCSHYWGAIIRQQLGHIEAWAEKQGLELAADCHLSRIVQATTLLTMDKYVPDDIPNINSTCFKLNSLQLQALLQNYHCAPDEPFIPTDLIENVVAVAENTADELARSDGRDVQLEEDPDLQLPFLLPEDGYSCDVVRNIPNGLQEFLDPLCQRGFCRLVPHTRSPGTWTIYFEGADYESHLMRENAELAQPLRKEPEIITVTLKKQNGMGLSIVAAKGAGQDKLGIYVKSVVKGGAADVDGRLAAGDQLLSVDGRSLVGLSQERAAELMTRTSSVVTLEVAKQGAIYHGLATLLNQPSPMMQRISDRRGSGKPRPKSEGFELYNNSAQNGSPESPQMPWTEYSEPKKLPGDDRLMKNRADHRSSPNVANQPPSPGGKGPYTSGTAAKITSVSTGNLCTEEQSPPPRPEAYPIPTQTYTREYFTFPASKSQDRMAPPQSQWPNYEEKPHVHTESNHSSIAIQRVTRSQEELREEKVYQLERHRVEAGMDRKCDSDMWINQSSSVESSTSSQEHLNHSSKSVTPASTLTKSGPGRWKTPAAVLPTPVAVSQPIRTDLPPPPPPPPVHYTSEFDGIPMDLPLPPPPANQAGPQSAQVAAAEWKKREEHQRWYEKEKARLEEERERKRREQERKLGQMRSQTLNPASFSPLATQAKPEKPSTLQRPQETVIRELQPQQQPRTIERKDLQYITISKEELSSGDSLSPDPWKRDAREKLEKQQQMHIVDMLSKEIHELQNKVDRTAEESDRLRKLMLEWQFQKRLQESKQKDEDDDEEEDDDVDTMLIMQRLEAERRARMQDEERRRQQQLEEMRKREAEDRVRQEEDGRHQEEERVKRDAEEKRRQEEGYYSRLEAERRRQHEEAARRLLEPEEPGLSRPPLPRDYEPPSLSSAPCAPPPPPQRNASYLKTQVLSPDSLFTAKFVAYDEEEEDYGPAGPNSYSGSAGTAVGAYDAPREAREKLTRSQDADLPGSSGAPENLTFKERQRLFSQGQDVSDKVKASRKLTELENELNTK

Assays:
[1] = target: l-afadin (endogenous, mouse brain) (mouse (endogenous in brain)) (UniProt Q9QZQ1); test: co-IP; endogenous proteins; light membrane fraction of P21 mouse brain in 0.25% DDM, 100 mM NaCl, 20 mM Hepes pH 7.4, 5 mM EDTA, 5 mM EGTA; l-afadin pAb or l/s-afadin pAb coupled to protein A magnetic beads, overnight, 4 °C; blot with the MAGUIN pAb
[2] = target: EGFP-tagged rat l-afadin (rat) (UniProt O35889); test: co-IP; HEK293 cells co-expressing EGFP-tagged afadin variants and V5-tagged MAGUIN variants; lysate in 0.25% DDM in buffer A; GFP pAb and protein-G Sepharose, 4 °C; blot with the MAGUIN pAb or V5 mAb
[3] = target: T1, EGFP-tagged s-afadin mutant lacking the RA domains (aa 350-1663) (rat) (UniProt O35889); test: as above
T1 sequence: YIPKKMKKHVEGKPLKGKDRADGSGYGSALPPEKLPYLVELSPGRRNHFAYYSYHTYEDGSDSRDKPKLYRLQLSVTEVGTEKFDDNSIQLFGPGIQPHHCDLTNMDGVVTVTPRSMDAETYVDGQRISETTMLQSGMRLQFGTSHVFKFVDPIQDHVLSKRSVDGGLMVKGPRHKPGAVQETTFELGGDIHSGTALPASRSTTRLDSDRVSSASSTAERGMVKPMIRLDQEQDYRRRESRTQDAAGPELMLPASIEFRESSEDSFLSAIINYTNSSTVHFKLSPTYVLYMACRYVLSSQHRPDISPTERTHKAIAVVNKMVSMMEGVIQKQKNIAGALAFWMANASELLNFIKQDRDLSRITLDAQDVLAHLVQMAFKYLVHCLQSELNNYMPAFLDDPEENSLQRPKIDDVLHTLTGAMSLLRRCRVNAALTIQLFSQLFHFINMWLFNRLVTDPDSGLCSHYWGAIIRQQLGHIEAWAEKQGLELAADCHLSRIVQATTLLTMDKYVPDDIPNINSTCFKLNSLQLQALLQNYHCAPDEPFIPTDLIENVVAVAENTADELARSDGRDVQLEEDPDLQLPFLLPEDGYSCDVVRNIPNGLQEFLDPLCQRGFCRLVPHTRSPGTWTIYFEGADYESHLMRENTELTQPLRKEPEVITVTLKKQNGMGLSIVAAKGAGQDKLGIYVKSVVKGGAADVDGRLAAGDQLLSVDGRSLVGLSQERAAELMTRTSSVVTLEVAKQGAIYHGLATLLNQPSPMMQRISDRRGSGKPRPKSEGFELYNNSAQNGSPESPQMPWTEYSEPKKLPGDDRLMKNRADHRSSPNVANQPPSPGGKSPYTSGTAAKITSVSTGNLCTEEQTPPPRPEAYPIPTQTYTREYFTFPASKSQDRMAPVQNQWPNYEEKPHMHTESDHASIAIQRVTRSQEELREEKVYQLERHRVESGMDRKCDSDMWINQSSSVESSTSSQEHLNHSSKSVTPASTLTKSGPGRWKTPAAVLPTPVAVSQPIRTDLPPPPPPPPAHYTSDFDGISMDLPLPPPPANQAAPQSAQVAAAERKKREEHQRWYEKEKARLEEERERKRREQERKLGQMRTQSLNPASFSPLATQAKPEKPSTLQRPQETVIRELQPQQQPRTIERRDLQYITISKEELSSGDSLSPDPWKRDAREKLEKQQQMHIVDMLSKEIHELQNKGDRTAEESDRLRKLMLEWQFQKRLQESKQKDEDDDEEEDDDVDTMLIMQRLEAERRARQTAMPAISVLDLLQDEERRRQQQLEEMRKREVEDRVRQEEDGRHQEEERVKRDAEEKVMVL

[4] = target: EGFP-tagged rat s-afadin (rat) (UniProt O35889); test: as above

“MAGUIN-1 (endogenous, mouse brain) (from UniProt Q80YA9-1 1-1032)” was tested, and the binding [1] was “binds”.
With “V5-tagged full-length MAGUIN-1 (from UniProt Q80YA9-1 1-1032)” the binding [2] was “binds weakly”, the binding [3] was “no binding” and the binding [4] was “binds”.
